Laboratory results taken from patent publication US20240239829A1 (priority 2021, published 2024).

How the values were obtained:
[1] = system: influenza infection and pneumonia
porcine rotavirus (PoRV) = conditions: newborn piglets aged 1-3 days
[2] = system: Lung epithelium cell line A549; assay: Sialic acid levels on A549 cells (fluorescent WGA, flow cytometry); conditions: over night at 37° C., 1 μg/ml-50 μg/ml
[3] = NANA-Me:NANA=1:1, 37° C., different pH
Description: Using simulated gastric fluid (SGF, pH=1.0), simulated intestinal fluid (SIF, pH=7.3) and phosphate buffer (PBS, pH=4.5) as diluents, the solution of N-acetylneuraminic acid (NANA) or N-acetylneuraminic acid methyl ester (NANA-Me) at the concentration of 5 mg/ml was prepared. The stabilities of N-acetylneuraminic acid, N-acetylneuraminic acid methyl ester and a combination of NANA plus NANA-Me (ratio=1:1) at 37° C. and different pH conditions were measured at various time points of 0.5, 1, 2, 4, and 6 hours. In addition, the optimal ratio of NANA to NANA-Me that maximizes the stability of NANA-Me at different pH conditions was tested at various time points of 0.5, 1, 2, 4, and 6 hours.

respiratory infection = assay: Prevention of respiratory infections of weaning piglets; assay type: in vivo; conditions: nursery feed for 4 days from day 15 of weaning
Excerpt: The sick rate was about 10% and the death rate was about 5%. […] Control feed comprised 500 grams of Tilmicosin per 1000 kg. The nursery feeds were given to 763 of weaning piglets and 750 of controls from day 15 of the weaning period.

In the case of `CS(=O)(=O)c1ccc([C@@H](O)[C@@H](CF)NC(=O)C(Cl)Cl)cc1` [Antibiotic, Florfenicol], the “Odds Ratio” value ([1]; death) was 0.58, the Death ([1]; number of pigs, via feed mixture for 5-7 days) was 5 and the “Death Rate (%)” value ([1]; via feed mixture for 5-7 days) was 4.76%.
In the case of `CCN1CCN(c2cc3c(cc2F)c(=O)c(C(=O)O)cn3C2CC2)CC1` [Enrofloxacin], the “efficacy of antibiotic treatment” value (porcine rotavirus (PoRV)) was “less than 30%”.
For `CC(=O)N[C@H]1[C@H]([C@H](O)[C@H](O)CO)OC(O)(C(=O)O)C[C@@H]1O` (some centres unmarked) [NANA, N-acetylneuraminic acid], the “sialic acid levels of the A549 cells” value [2] was “not changed significantly”.
For `COC(=O)[C@]1(O)CC(O)[C@@H](NC(C)=O)C(C(O)[C@H](O)CO)O1` (some centres unmarked) [NANA-Me, N-acetylneuraminic acid methyl ester], the “stability of NANA-Me in a composition with NANA” value [3] was “improved” and the “sialic acid levels of the A549 cells” value [2] was “increased in a way of dose dependent”.
For `CC[C@H]1OC(=O)C[C@@H](O)[C@H](C)[C@@H](O[C@@H]2O[C@H](C)[C@@H](O)[C@H](N(C)C)[C@H]2O)[C@@H](CCN2C[C@H](C)C[C@H](C)C2)C[C@@H](C)C(=O)/C=C/C(C)=C/[C@@H]1CO[C@@H]1O[C@H](C)[C@@H](O)[C@@H](OC)[C@H]1OC` [Tilmicosin], the “Death Rate (%)” value (respiratory infection) was 5.10%.
